Measurements taken from the supplement of paper PMC11383711.
The other results are listed elsewhere or left out. Binding of human antibodies (heavy:light variable regions, tested as scFv in one mRNA-display pool) to influenza hemagglutinin, with or without the stem antibody CR9114 bound first. Score = (mean enrichment − median) / interquartile range of that screen; higher = more enriched, 0 = typical non-binder. Active = above the paper's cut-off per screen: stems 28; unblocked H1 Solomon Islands 5, H1 Michigan 3, H3 5, H5 19, H7 2.85, both B 5; blocked 9, 7, H5 10, H7 10, B Phuket 10, B Lee 11.5. Scores are scaled within each screen and are no affinities; replicates correlate at about 0.6 to 0.9, and antibodies rare in the pool are noisier.

B1: SFV009-3A02 (protein)
chain 1: EVQLLESGGGLVQPGGSLRLSCEASGFTFISYAMSWVRQAPGKGLEWVSVISGSGGARYYADSVKGRFTISRDNSKNTLYLEMNNVRAEDTAVYFCAKDRILPYDTDAFDIWGQGTMVTVSS
chain 2: DIQMTQSPSTLSASVGDRVTITCRASESVSVSLAWYQQKPGKAPKLLIYKASTLESGVPPRFSGSGSGTEFTLTISSLQPNDFATYYCQEYHTSSRVTFGPGTKVDIK
B2: antibody 3E05 (protein)
chain 1: EVQLVESGGGLVQPGGSLRLSCAASGFTFSSYDMHWVRQAAGKGLEWVSAIGTAGDPYYPGSVKGRFTISRENAKNSLYLQLNSLRAGDTAVYYCARGVAASLVPRRYYYGLDVWGQGTTVTVSS
chain 2: SYELTQPPSVSVSPGQTASITCSGDMLGDKYACWYQQKPGQSPVLVIYEDTKRPSGIPERFSGSNSGNTATLTISGTQAMDEADYYCQAWTGSTPVVFGGGTKLTVL
B3: W85-1H08 (protein)
chain 1: EVQVVESGGGVVQPGRSLRLSCAASGFTFGSYAMYWVRQAPGKGLEWVAVISYDGSDKYYGDFVKGRFTISRDNSKNTLYLQMNSLRVEDTAVYYCLRGRYGDPPTDFWGQGTLVTVSS
chain 2: QSALTQPPSVSEAPRQRVTISCSGSRSNIGNNAVNWYQQLPGKAPKLLIFYDDLLSSGVSDRFSGSKSGTSASLAISGLQSEDEADYYCATWDDILNGPVFGGGTKLTV
B4: AG1-A01 (protein)
chain 1: VQLVESGGGFVQAGRSLRLSCAASGFIFDDFAMHWVRQAPGGGLEWVSHISSNSGLIVYAESVKGRFTISRDNAMDALYLQMNSLTIEDTAFYYCMKGGHYSDSRGYGSNWGRGTLVTVSS
chain 2: DIQMTQSPSSLSASVGDRVTITCRTSQAISNRLAWFQQKPGKAPKSLIYAASTLQTGVPSKFSGTGSGTDFTLTISSLQPEDFATYYCQQYKSFPLTFGRGTKVEIK
B5: K77-1D10 (protein)
chain 1: QVQLQESGPGLVKTSGTLSLTCAVSGGSMSSSDWWSWVRQPPGKGLEWIGEIHRSGTSNYNPSLQTRVTISVDKSKNQFSLKLTSVTAADTAVYYCARVATLYYDDNTPYSSYYFDFWGQGILVPVSS
chain 2: EIVLTQSPGTLSLSPGERATLSCRASQSVSTNYLAWYQQSPGQAPRLLIYGASSRAAGIPDRFSGSGSGTDFTLTITRLEPEDFAVYYCQHYVTSPLFGGGTKVEI
B6: W85-2E09 (protein)
chain 1: EVQLVESGGGLVQPGRSLRLSCTASGFTFSDYTMNWVRQAPGKGLEWIGFIRSNLYGGTSPYPASVRDRFTISRDDSKNIAYLQMNSLNTEDTAVYFCSRRRRGSTPLPDLWGQGTLVTVSS
chain 2: DIQMTQSPSTLSASVGDRVTITCRASQNVFSWLAWYQQKSGKAPQLLIYKASNLESGVPSRFSGSGSGTEFTLTINNLQPDDFASYYCQQYNSHSVWTFGQGTKVELK

biological target: Influenza A H1N1 A/Michigan/45/2015 hemagglutinin ectodomain; assay: mRNA display binding score; higher = more enriched on the antigen; details: antigen blocked with: 2 µM CR9114 IgG
Description: (§1)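 A pool of natively paired antibodies, displayed as scFv on mRNA, was selected once on antigen-coated beads and sequenced before and after; two replicates.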

| Binder | mRNA display binding score |
| --- | --- |
| B1 | inactive: -0.255 |
| B2 | inactive: -0.555 |
| B3 | inactive: -0.447 |
| B4 | inactive: 0.163 |
| B5 | inactive: -0.354 |
| B6 | inactive: 0.849 |

same assay, conditions: antigen blocked with: nothing

| Binder | mRNA display binding score |
| --- | --- |
| B1 | inactive: -0.642 |
| B2 | inactive: -0.684 |
| B3 | inactive: -0.38 |
| B4 | inactive: 1.76 |
| B5 | inactive: -0.504 |
| B6 | inactive: 2.94 |

biological target: Influenza A H1N1 A/Solomon Islands/3/2006 hemagglutinin ectodomain; assay: as above; details: antigen blocked with: 2 µM CR9114 IgG
Description: as §1

| Binder | mRNA display binding score |
| --- | --- |
| B1 | inactive: -0.343 |
| B2 | inactive: -0.547 |
| B3 | inactive: -0.253 |
| B4 | inactive: 1.04 |
| B5 | inactive: -0.608 |
| B6 | inactive: 0.479 |

same assay, conditions: antigen blocked with: nothing

| Binder | mRNA display binding score |
| --- | --- |
| B1 | inactive: -0.712 |
| B2 | inactive: -0.681 |
| B3 | inactive: -0.569 |
| B4 | inactive: 3.15 |
| B5 | inactive: -0.264 |
| B6 | inactive: 4.99 |

biological target: Influenza A H3N2 A/Singapore/INFIMH-16-0019/2016 hemagglutinin ectodomain; assay: as above; details: antigen blocked with: nothing
Description: as §1

| Binder | mRNA display binding score |
| --- | --- |
| B1 | inactive: -0.573 |
| B2 | inactive: -0.169 |
| B3 | inactive: -0.22 |
| B4 | inactive: 0.683 |
| B5 | inactive: 0.116 |
| B6 | active: 8.42 |

biological target: Influenza A H5N1 A/Qinghai/1A/2005 hemagglutinin ectodomain; assay: as above; details: antigen blocked with: 2 µM CR9114 IgG
Description: as §1

| Binder | mRNA display binding score |
| --- | --- |
| B1 | inactive: -0.572 |
| B2 | inactive: -0.776 |
| B3 | inactive: -0.86 |
| B4 | inactive: 0.473 |
| B5 | inactive: -0.696 |
| B6 | inactive: 0.833 |

same assay, conditions: antigen blocked with: nothing

| Binder | mRNA display binding score |
| --- | --- |
| B1 | inactive: -0.535 |
| B2 | inactive: -0.458 |
| B3 | inactive: -0.636 |
| B4 | inactive: 1.08 |
| B5 | inactive: -0.464 |
| B6 | inactive: 2.65 |

biological target: Influenza A H7N9 A/Shanghai/2/2013 hemagglutinin ectodomain; assay: as above; details: antigen blocked with: 2 µM CR9114 IgG
Description: as §1

| Binder | mRNA display binding score |
| --- | --- |
| B1 | inactive: -0.132 |
| B2 | inactive: 8.65 |
| B3 | inactive: -0.685 |
| B4 | inactive: -1.19 |
| B5 | inactive: 0.12 |
| B6 | inactive: -0.723 |

same assay, conditions: antigen blocked with: nothing

| Binder | mRNA display binding score |
| --- | --- |
| B1 | inactive: -0.448 |
| B2 | inactive: -0.14 |
| B3 | inactive: -0.661 |
| B4 | inactive: 0.29 |
| B5 | inactive: -0.528 |
| B6 | active: 3.88 |

biological target: Influenza B/Lee/1940 hemagglutinin ectodomain; assay: as above; details: antigen blocked with: 2 µM CR9114 IgG
Description: as §1

| Binder | mRNA display binding score |
| --- | --- |
| B1 | inactive: 0.514 |
| B2 | inactive: -0.104 |
| B3 | inactive: 0.149 |
| B4 | inactive: 1.08 |
| B5 | inactive: -0.419 |
| B6 | inactive: 1.83 |

same assay, conditions: antigen blocked with: nothing

| Binder | mRNA display binding score |
| --- | --- |
| B1 | inactive: -0.388 |
| B2 | inactive: 0.238 |
| B3 | inactive: 0.652 |
| B4 | inactive: 2.85 |
| B5 | inactive: -0.231 |
| B6 | active: 17.3 |

biological target: Influenza B/Phuket/3073/2013 hemagglutinin ectodomain; assay: as above; details: antigen blocked with: 2 µM CR9114 IgG
Description: as §1

| Binder | mRNA display binding score |
| --- | --- |
| B1 | inactive: -0.296 |
| B2 | inactive: -0.302 |
| B3 | inactive: -0.692 |
| B4 | inactive: 0.205 |
| B5 | inactive: -0.464 |
| B6 | inactive: 0.336 |

same assay, conditions: antigen blocked with: nothing

| Binder | mRNA display binding score |
| --- | --- |
| B1 | inactive: -0.324 |
| B2 | inactive: -0.276 |
| B3 | inactive: -0.292 |
| B4 | inactive: 2.33 |
| B5 | inactive: -0.399 |
| B6 | inactive: 3.87 |
